PubChem BioAssay AID1671193 (National Center for Advancing Translational Sciences (NCATS), 2021)
The whole screen tested about 150,000 compounds, of which about 180 (0.12%) were called active. The inconclusive results got no clear call from the source; some entries with a clear call stand among them for comparison. Calls come from the whole dose curve; as a rule, active = well fitted cell-killing curve with a large enough effect; inconclusive = small, poorly fitted or top-dose-only effect, or effect the other way; inactive = flat fitted curve, though single readings scatter. A potency beside an inconclusive call is a rough fit, not a confirmed value.

Test: GF-AFC viability counterscreen for inhibitors of alpha-synuclein gene (SNCA) expression; note: nearly all actives have a fitted effect of over 30% in size;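 for activity change, negative = cytotoxicity: 0% = DMSO-treated cells and -100% = medium-only wells without cells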
Conditions: HEK-293-SNCA-luc viability, GF-AFC fluorescence, 24 h; activity change, negative = cytotoxicity: at 57.1 µM (top of the series) unless noted
Method in brief: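 Cytotoxicity counterscreen: after 24 h compound treatment of genome-edited SNCA-luciferase HEK-293 cells, live-cell protease substrate GF-AFC read by fluorescence after 30 min; activity scaled between DMSO (0%) and medium-only (-100%), curves Hill-fitted.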
Potency is the fitted concentration of half-maximal effect; tags give direction and shape of the fitted curve.

SMILES	Potency	activity change, negative = cytotoxicity
COc1ccc(-n2nc(C)c([C@@H]3C=C[C@@H](NCc4cccc(Cl)c4)C3)c2C)cc1	inconclusive: 28.2 µM [cytotoxic, partial curve, poor fit]	
O=C1NC2(CCN(C(=O)c3ccc4c(c3)OCO4)CC2)Oc2ccccc21	inconclusive: 10 µM [cytotoxic, partial curve, poor fit]	
CCOC(=O)c1ccc(NC(=O)CSc2nc3c([nH]c4ccccc43)c(=O)n2C)cc1	inconclusive: 10 µM [cytotoxic, partial curve]	
Cc1ccc(-c2cc(C(F)(F)F)nn2-c2ccc(S(N)(=O)=O)cc2)cc1	inconclusive: 8.44 µM [rising, single point]	
COc1cc2cc(CNc3ccccc3)c(=O)n(CC(=O)Nc3cc(C)cc(C)c3)c2cc1OC		inconclusive: 17.9%
COC(=O)c1ccccc1NC(=O)Cn1c(=O)n(CCCC(=O)NCc2ccccc2OC)c(=O)c2ccccc21	inconclusive: 7.08 µM [cytotoxic, single point]	
COc1cc(Cl)ccc1C(=O)N1CCC(Cc2nc(-c3ccc(F)cc3)no2)CC1	inactive	
CCC1Oc2ccc(NS(=O)(=O)c3ccc(C)c(F)c3)cc2CN(Cc2ccc(OC)cc2)C1=O (stereo not given)	inactive	
CCN(CCN(C)C)C(=O)C1CCN(S(=O)(=O)c2c(C)noc2/C=C/c2ccccc2F)CC1	inconclusive: 39.8 µM [cytotoxic, single point]	
O=C([C@@H]1C[C@H](Oc2cccnc2)CN1C(=O)CCc1ccccc1)N1CCOCC1	inconclusive: 25.1 µM [cytotoxic, single point]	
COCCn1c(=O)c(-c2cn(C)c3ccccc23)nc2cnc(Oc3cccc(Cl)c3)nc21	inconclusive: 3.16 µM [rising, partial curve, poor fit]	
O=S(=O)(c1ccc2c(c1)CCC2)N1CCCC(Cn2c(C3CC3)nc3cccnc32)C1 (stereo not given)	inactive	
C[C@H]1CCCN1C(=O)c1nnc(CNc2ccccc2Cl)n1-c1ccccc1	inconclusive: 35.5 µM [cytotoxic, partial curve, poor fit]	
OC(c1nc(Nc2cccc(Cl)c2)n[nH]1)C1CC1 (stereo not given)	inactive	
COC(=O)[C@@H]1Cc2c([nH]c3ccccc23)[C@H]2C[C@H](NCCc3cnc[nH]3)C[C@@H](c3ccccc3F)N21	inconclusive: 39.8 µM [cytotoxic, single point]	
CCOc1ccccc1C(=O)NC1CCN(c2cc(-c3ccc(Cl)cc3)[nH]n2)CC1	inconclusive: 25.1 µM [cytotoxic, single point]	
COC(=O)c1ccccc1NC(=O)c1cc2c(-c3ccc(OC)c(OC)c3)nn(C)c2s1	inconclusive: 3.98 µM [cytotoxic, partial curve, poor fit]	
O=C(/C=C/c1cn(CC(O)CN2CCCCCC2)c2ccccc12)c1ccc(Br)cc1 (stereo not given)	inconclusive: 11.2 µM [rising, partial curve]	
CCNc1ncc2nc(-c3ccc(F)cc3)c(=O)n(C)c2n1	inconclusive: 7.08 µM [rising, single point]	
Cc1ccc(CNC(=O)CSc2nc3n[nH]c(C)c3c(=N)n2-c2cccc(C)c2)cc1	inconclusive: 28.2 µM [cytotoxic, partial curve, poor fit]	

SMILES	Potency	activity change, negative = cytotoxicity
Cc1ccc(S(=O)(=O)N(C)CC2CCOCC2)c(C)c1	inactive	
O=C(C1CCc2ncc(-c3ccsc3)n2C1)N1CCN(c2ccccn2)CC1 (stereo not given)	inactive	
CCCS(=O)(=O)NC[C@@H]1C=C(C)[C@H](Cc2nnc(-c3ccccc3F)o2)C[C@H]1C(C)C	inconclusive: 28.2 µM [cytotoxic, partial curve, poor fit]	
Clc1ccccc1-c1nccc(NCCN2CCOCC2)n1	inactive	
Cc1ccc(C2Cn3nnc(-c4noc(-c5ccoc5)n4)c3CO2)cc1 (stereo not given)	inactive	
Cc1cc2cc(-c3c(C)noc3C)nc(-c3ccc(CO)cc3)c2o1	inactive	
O=C(c1cccc(F)c1)N1CCC(n2cc(-c3nc(C4CC4)no3)nn2)C1 (stereo not given)	inconclusive: 7.08 µM [cytotoxic, single point]	
O=C(NCCc1ccccc1)Nc1cccc(-c2nnc3n2CCCC3)c1	inconclusive: 2.51 µM [cytotoxic, full curve, poor fit]	
O=C(COc1ccccc1F)Nc1ccc(Cl)c(-c2nc3ccccc3[nH]2)c1	inconclusive: 39.8 µM [cytotoxic, single point]	
COc1ccc(C(=O)N[C@@H]2CCC[C@@H]2C(=O)NCC(C)C)cn1	inconclusive: 17.8 µM [cytotoxic, partial curve, poor fit]	
COCCn1c(=O)c(-c2cn(C)c3ccccc23)nc2cnc(Oc3ccc(OC)cc3)nc21	inconclusive: 11.2 µM [rising, partial curve]	
Cc1cccc(CNC(=O)c2cc3c(N(C)Cc4ccccc4)nc(C)cn3n2)c1	inactive	
CCCCN1CCN(C(=O)c2csc(N3CCN(c4cccc(Cl)c4)CC3)n2)CC1	inconclusive: 25.1 µM [cytotoxic, single point]	
CCc1ccccc1NC(=O)CN1C(=O)NC2(CCOCC2)C1=O	inactive	
OC(c1cccc(C(F)(F)F)c1)c1nc(Nc2ccc(N3CCOCC3)cc2)n[nH]1 (stereo not given)	inactive	
CCOc1cccc(CNC(=O)[C@H]2CCC[C@H]2NC(=O)c2ccc(OC)cc2)c1	inconclusive: 39.8 µM [cytotoxic, single point]	
COCC1CCN(C(=O)C2CCCN(C(=O)c3ccccc3)CCC(=O)NCC2)CC1 (stereo not given)		inconclusive: -31.5%
Cc1c(-c2ccc(Cl)cc2)c(=O)oc2c(CN3CCOCC3)c(O)ccc12	inconclusive: 25.1 µM [rising, partial curve, poor fit]	
COc1cccc(CC(=O)N2CCc3nnc([C@@H]4C[C@@H](O)CN4C)n3CC2)c1	inconclusive: 3.55 µM [rising, full curve, poor fit]	
CN(C(=O)CSc1nc2ccc(NC(=O)COc3ccccc3Cl)cc2s1)c1ccccc1	inconclusive: 31.6 µM [rising, partial curve, poor fit]	
